Some of the results follow.
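Note: jurkat cells carrying a lentiviral library of mutant zinc finger degrons fused to EGFP plus mCherry, mCherry+ cells FACS sorted, degron abundance counted by next-generation sequencing.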

In the test the target is no compound (DMSO). The experiment in a line: log2 fold change of degron read counts, EGFP-low vs EGFP+ sorted cells; higher = lower degron-EGFP level without compound (poor expression or instability). To be noted: compound: DMSO control; 18 h.
FCCPICGRTFTQKGNLLRHIKL: the “log2 fold change of degron read counts” value is -0.533.

Turning to FLCEICGAKFTQKGNLLRHIKL, the “log2 fold change of degron read counts” value is -1.53.

With FNCPQCGADFTQKGNLLRHIKL, the “log2 fold change of degron read counts” value was -2.08.

As to FDCNQCGHLFTQKGNLLRHIKL, the “log2 fold change of degron read counts” value came out at 1.19.

As for FACPICGAPFTQKGNLLRHIKL, the “log2 fold change of degron read counts” value was determined as 0.733.

Consider FKCPICGALFTQKGNLLRHIKL, for which the “log2 fold change of degron read counts” value was -0.515.

Turning to FWCEVCGAFFTQKGNLLRHIKL, the “log2 fold change of degron read counts” value is 0.957.

In the case of FQCNVCGASFTQKGNLLRHIKL, the “log2 fold change of degron read counts” value is -0.664.

In the case of FWCDQCGADFTQKGNLLRHIKL, the “log2 fold change of degron read counts” value is -0.786.

As to FECEQCGAMFTQKGNLLRHIKL, the “log2 fold change of degron read counts” value was -2.62.

Regarding FICPQCGAMFTQKGNLLRHIKL, the “log2 fold change of degron read counts” value is 0.125.

In the case of FSCNQCGAMFTQKGNLLRHIKL, the “log2 fold change of degron read counts” value is -0.913.

FICDQCGAPFTQKGNLLRHIKL: the “log2 fold change of degron read counts” value was -1.39.

Regarding FGCNICGASFTQKGNLLRHIKL, the “log2 fold change of degron read counts” value is -0.672.

For FRCPVCGAHFTQKGNLLRHIKL, the “log2 fold change of degron read counts” value is -0.667.

For the sequence FHCNICGAVFTQKGNLLRHIKL, the “log2 fold change of degron read counts” value is 0.0838.

As to FNCPICGAQFTQKGNLLRHIKL, the “log2 fold change of degron read counts” value was -0.524.

Take FSCDVCGAEFTQKGNLLRHIKL: the “log2 fold change of degron read counts” value is -1.51.

Consider FRCPICGRTFTQKGNLLRHIKL, for which the “log2 fold change of degron read counts” value was -0.537.

Take FDCPICGRFFTQKGNLLRHIKL: the “log2 fold change of degron read counts” value came to 0.611.

As to LLCEICGFYCTQKGNLLRHIKL, the “log2 fold change of degron read counts” value was found to be 1.18.

With LVCPICGFTCTQKGNLLRHIKL, the “log2 fold change of degron read counts” value came out at 0.0502.

Regarding FNCEICGAPFTQKGNLLRHIKL, the “log2 fold change of degron read counts” value was -0.286.

With FTCEICGACFTQKGNLLRHIKL, the “log2 fold change of degron read counts” value was -1.04.

Consider FGCPICGHDFTQKGNLLRHIKL, for which the “log2 fold change of degron read counts” value was -0.255.

As for FQCPICGRTFTQKGNLLRHIKL, the “log2 fold change of degron read counts” value is -0.454.

On to FQCPQCGAGFTQKGNLLRHIKL, for which the “log2 fold change of degron read counts” value was -0.427.

Regarding FVCNVCGARFTQKGNLLRHIKL, the “log2 fold change of degron read counts” value is -1.03.

Turning to FNCNQCGAKFTQKGNLLRHIKL, the “log2 fold change of degron read counts” value is -0.405.

Turning to LNCPICGFLCTQKGNLLRHIKL, the “log2 fold change of degron read counts” value turned out to be 1.17.

Regarding LQCNQCGFTCTQKGNLLRHIKL, the “log2 fold change of degron read counts” value came to 0.353.

As to FRCEICGRLFTQKGNLLRHIKL, the “log2 fold change of degron read counts” value is -0.531.

Regarding FICPICGAKFTQKGNLLRHIKL, the “log2 fold change of degron read counts” value was -0.159.

Consider FMCEICGHNFTQKGNLLRHIKL, for which the “log2 fold change of degron read counts” value was -1.25.

Regarding FYCEICGAAFTQKGNLLRHIKL, the “log2 fold change of degron read counts” value was -1.12.

For the sequence FTCNQCGRRFTQKGNLLRHIKL, the “log2 fold change of degron read counts” value is 0.435.

FCCNQCGHPFTQKGNLLRHIKL: the “log2 fold change of degron read counts” value came to 0.0519.

Turning to FGCDICGAIFTQKGNLLRHIKL, the “log2 fold change of degron read counts” value was -0.742.

Turning to LFCEICGFKCTQKGNLLRHIKL, the “log2 fold change of degron read counts” value came out at 0.07.

On to FICNICGAVFTQKGNLLRHIKL, for which the “log2 fold change of degron read counts” value was found to be 0.164.

Take FACPICGARFTQKGNLLRHIKL: the “log2 fold change of degron read counts” value is -0.509.

As for FNCNVCGAEFTQKGNLLRHIKL, the “log2 fold change of degron read counts” value is -1.99.

FICEICGHRFTQKGNLLRHIKL: the “log2 fold change of degron read counts” value was -0.815.

Regarding FMCNQCGACFTQKGNLLRHIKL, the “log2 fold change of degron read counts” value is -0.579.

On to FYCDQCGAPFTQKGNLLRHIKL, for which the “log2 fold change of degron read counts” value was -0.833.

For the sequence FLCEVCGAHFTQKGNLLRHIKL, the “log2 fold change of degron read counts” value was -1.73.

As for FFCNVCGAEFTQKGNLLRHIKL, the “log2 fold change of degron read counts” value was -0.934.

Consider FECNICGADFTQKGNLLRHIKL, for which the “log2 fold change of degron read counts” value is -1.03.

Turning to FRCNQCGHIFTQKGNLLRHIKL, the “log2 fold change of degron read counts” value was -0.0307.

For FQCNVCGALFTQKGNLLRHIKL, the “log2 fold change of degron read counts” value was determined as 0.212.

These data come from the supplement of paper PMC12645437, “Orthogonal IMiD-Degron Pairs Induce Selective Protein Degradation in Cells” (ACS Chemical Biology, 2025).
